Source: the supplement of paper PMC3724861
The other results are listed elsewhere or left out.

The sequences below were run on T1, Caupolican (Caup) homeodomain DNA-binding domain (assay: PBM E-score (8-mer, recovered from the published 9-mer minima) (E-score (dimensionless, -0.5 to 0.5)); Drosophila protein; higher = stronger relative binding preference, active = 0.31 or more).
T1 sequence: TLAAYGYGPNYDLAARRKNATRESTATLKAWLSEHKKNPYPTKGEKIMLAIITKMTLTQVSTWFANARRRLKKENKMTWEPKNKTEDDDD
Summary of the method: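 Caup's homeodomain DNA-binding domain (residues 214-303) was produced by in vitro transcription and translation and applied at 100 nM to custom-designed protein binding microarrays. Each value is an enrichment score giving relative binding preference for a short DNA word; higher means stronger. Published 9-mer scores were the minimum of their two constituent 8-mer scores, and the 8-mer values were recovered from those minima. A cutoff of 0.31 marks candidate binding sequences.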

PBM E-score, ≥ 0.113:
TAATTCGA

PBM E-score, inactive:
CATGCAAA 0.181
ACGACACC 0.178
CCAACCTA -0.117
CACCATAG 0.0543
CATAACAC 0.254
AGATGCGG -0.0788
GGCCAAAA -0.131
CATCCTAA 0.0223
AAATTCAA 0.0754
CGAATCCC -0.0917
ACACTACT 0.163
ACACAAGC 0.27
TGACTTAA 0.101
TCTTGAAA 0.0577
CTAGGCCA -0.184
GGTCTTAA -0.0262
ACTGCCAG -0.125
ATACCCAT 0.0992
CTTTGTAC 0.229
CAGCCAGG -0.171
CCTCTAGC -0.113
CCGCATGA -0.165
AAGCCGCG -0.185
CCCCGTCC -0.288
GAGAATAC 0.117
CATGACAA 0.283
ACCTGATG -0.0468
AATGGACC 0.00274
ATAGTATC 0.141
GGCCGCTA -0.26
ACAACCCG 0.158
AAAACGCA 0.00702
ACAGAATG 0.13
ACATTTGC 0.211
AAAGCCAG -0.121
AATTCGGG -0.0064
AGGGTTAA -0.0478
CTGAGGAA -0.138
GGTCTTGA -0.00219
CTGCTATC -0.0137
AATCAGTG 0.0927
AGCAAAAC 0.0891
AATGATGC 0.0782
AGCGGATC -0.0887
AGTTTGGG -0.0668
ATTGACGG -0.0874
CGGTAGAA -0.134
CGGATTGA 0.00308
AACGTGAC 0.0599
GATCAGCC -0.0818
TGCAATAA 0.139
CCGTTAAG -0.0392
AAATTATG 0.119
CGACACCC -0.022
ATTCTGTA 0.149
ACCCGCTA -0.0497
GAGGTACC -0.137
AAGTGGTC -0.0451
CTGCCATC -0.0451
CAGTTTAA 0.0934
CTGACATC 0.28
ATTTCAGC -0.057
ATACTTAA 0.151
AATGCAAC 0.113
CTTTTGGC -0.151
TACGAGGA 0.0493
AATACTTA 0.0759
GTAAGCAA 0.105
CCGCAGTA -0.0913
AGGTTACG -0.0221
CTCGAGTA 0.0555
AGCTTTTC -0.00736
AGAGGTCG -0.127
CGGAGGTA -0.0752
TCCTGCGA -0.0251
ATGCTTTA 0.126
GGCGCGCA -0.127
TCGAAACA 0.152
CTTCCAGC -0.248
GTCATCGA 0.0888
TCCGTCGA -0.0302
CTCCTCAG -0.117
GCGGGCAC -0.144
CAGGGGCC -0.276
ACTCGAGA 0.00964
GCCCTTAC -0.156
ACCACCAG -0.0219
CTATAAGA 0.0561
ACAATGCT 0.242
CTGACACC 0.122
CAGGAAGA -0.0858
ACATAGAG 0.116
AGTCCGGC -0.144
TAAGGACA 0.144
GCACTTAC -0.0194
GAACTGAA 0.0405
CGTGCCTC -0.188
CTCCTATA -0.0635
CCACAATC -0.0353
ATCATATA 0.186
AATTTACC 0.0909
GTGCTAAC 0.0208
CGCTGACA 0.13
GGCTTGCA -0.0355
CTCCCGTA -0.181
TGGATTAA 0.0568
GAGGTGGC -0.247
ACTATAAG 0.125
GGTAGAAC 0.0897
ACATTGGT 0.14
GCCCCCAA -0.27
AGCTGTAG 0.0249
ATGTGGGG -0.141
CGACCGCA -0.144
AATGACTA 0.114
CCTAGCAA 0.0501
TGGTTCAA -0.00435
CCTCGCTC -0.145
ACGTGACT 0.0125
CTAGGAGC -0.193
CAATAGCC 0.0422
AATCGACT 0.0371
GATTCATA 0.0911
CAAAGAGG -0.0613
CCGCACAA -0.0477
AAAGAATT 0.0402
ATGCACCG -0.0436
GAGTTGCA -0.0255
CTCGAATA -0.105
CGTCCCAC -0.127

PBM E-score, ≥ 0.0538:
CGCATCTA

PBM E-score, ≥ 0.00868:
ACCTGGGA

PBM E-score, ≥ -0.0104:
AGCCGAAA

PBM E-score, ≥ 0.0269:
ACGCCATA

PBM E-score, active:
AACACGTG ≥ 0.351
CATGTCCC 0.33
CTTGTAAC 0.424
GACACGAC 0.347

PBM E-score, ≥ 0.0071:
ACGGACCA

PBM E-score, ≥ 0.12:
AAGATGAT

PBM E-score, ≥ 0.0544:
ACGTCTGA

PBM E-score, ≥ 0.176:
AGCAAGTA

PBM E-score, ≥ 0.271:
ACATTAGT
